Measurements as given in patent publication US20090054323A1 (published 2009).
Substitutions are numbered along the chain they refer to. Each block holds one binder with its values, some of them ahead of it.

Molecular target: T1, human Ang-2 (human, UniProt O15123 19-496, limits assumed)
T1 construct: Sources differ by assay: R&D Systems 623-AN (mixture of 2 truncated versions) for initial screening; also called hAng-2; huAng-2
T1 sequence (looked up): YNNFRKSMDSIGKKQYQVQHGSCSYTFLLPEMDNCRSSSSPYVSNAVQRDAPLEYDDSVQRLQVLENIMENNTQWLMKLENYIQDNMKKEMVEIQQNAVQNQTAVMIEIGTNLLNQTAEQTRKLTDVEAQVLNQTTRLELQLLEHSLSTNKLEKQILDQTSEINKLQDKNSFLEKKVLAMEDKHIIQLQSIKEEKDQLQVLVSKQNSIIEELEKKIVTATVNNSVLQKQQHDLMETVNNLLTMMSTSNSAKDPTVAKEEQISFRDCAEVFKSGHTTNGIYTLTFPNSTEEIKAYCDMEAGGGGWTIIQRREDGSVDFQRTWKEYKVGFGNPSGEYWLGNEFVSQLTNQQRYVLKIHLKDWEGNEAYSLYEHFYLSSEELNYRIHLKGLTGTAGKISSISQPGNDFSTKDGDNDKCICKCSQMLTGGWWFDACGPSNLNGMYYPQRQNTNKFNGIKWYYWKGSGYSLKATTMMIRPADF
Test: neutralization ELISA vs Tie-2-Fc

IC50: 0.16 nM
B1: Con4-C5 (C) (Fc fusion)
chain: [human IgG1 Fc not written out]GGGGGAQAATQEECEWDPWTCEHMPRSLE

IC50: 0.48 nM
B2: Con4-20 (C) (Fc fusion)
chain: [human IgG1 Fc not written out]GGGGGAQQVIGRPCEWDPWTCEHLEGLLE

IC50: 2.47 nM
B3: Con4-1 (C) (Fc fusion)
chain: [human IgG1 Fc not written out]GGGGGAQVLGGQGCQWDPWTCSHLEDGLE

IC50: 3.21 nM
B4: Con4-21 (C) (Fc fusion)
chain: [human IgG1 Fc not written out]GGGGGAQTKGKSVCQWDPWTCSHMQSGLE

IC50: 0.3 nM
B5: Con4-39 (C) (Fc fusion)
chain: [human IgG1 Fc not written out]GGGGGAQPVNQEDCEWDPWTCEHMPPMLE

IC50: 0.44 nM
B6: Con4-47 (C) (Fc fusion)
chain: [human IgG1 Fc not written out]GGGGGAQQTSQEDCVWDPWTCDHMVSSLE

IC50: 0.26 nM
B7: Con4-46 (C) (Fc fusion)
chain: [human IgG1 Fc not written out]GGGGGAQQHWQEECEWDPWTCDHMPSKLE

IC50: 1.2 nM
B8: Con4-8 (C) (Fc fusion)
chain: [human IgG1 Fc not written out]GGGGGAQSTIGDMCEWDPWTCAHMQVDLE

IC50: 0.41 nM
B9: Con4-29 (C) (Fc fusion)
chain: [human IgG1 Fc not written out]GGGGGAQRTTQEKCEWDPWTCEHMESQLE

IC50: 86.6 nM
B10: Con4-10 (C) (Fc fusion)
chain: [human IgG1 Fc not written out]GGGGGAQTQGLHQCEWDPWTCKVLWPSLE

IC50: 0.3 nM
B11: Con4-28 (C) (Fc fusion)
chain: [human IgG1 Fc not written out]GGGGGAQAWGQEGCDWDPWTCEHMLPMLE

IC50: 6.94 nM
B12: Con4-16 (C) (Fc fusion)
chain: [human IgG1 Fc not written out]GGGGGAQAVGSQTCEWDPWTCAHLVEVLE

IC50: 0.96 nM
B13: Con4-17 (C) (Fc fusion)
chain: [human IgG1 Fc not written out]GGGGGAQGPRISTCQWDPWTCEHMDQLLE

IC50: 0.19 nM
B14: Con4-49 (C) (Fc fusion)
chain: [human IgG1 Fc not written out]GGGGGAQWAAQEECEWDPWTCEHMGRMLE

IC50: 20.1 nM
B15: Con4-9 (C) (Fc fusion)
chain: [human IgG1 Fc not written out]GGGGGAQGTSPSFCQWDPWTCSHMVQGLE

IC50: 0.17 nM
B16: Con4-42 (C) (Fc fusion)
chain: [human IgG1 Fc not written out]GGGGGAQLRHQEGCEWDPWTCEHMFDWLE

IC50: 0.75 nM
B17: Con4-32 (C) (Fc fusion)
chain: [human IgG1 Fc not written out]GGGGGAQKSTQDDCDWDPWTCEHMVGPLE

IC50: 4.8 nM
B18: Con4-18 (C) (Fc fusion)
chain: [human IgG1 Fc not written out]GGGGGAQWVNEVVCEWDPWTCNHWDTPLE

IC50: 0.31 nM
B19: Con4-25 (C) (Fc fusion)
chain: [human IgG1 Fc not written out]GGGGGAQRAPQEDCEWDPWTCAHMDIKLE

IC50: 9.8 nM
B20: Con4-C4 (C) (Fc fusion)
chain: [human IgG1 Fc not written out]GGGGGAQTTIGSMCQWDPWTCEHMQGGLE

IC50: 5.76 nM
B21: Con4-19 (C) (Fc fusion)
chain: [human IgG1 Fc not written out]GGGGGAQVVQVGMCQWDPWTCKHMRLQLE

IC50: 0.18 nM
B22: Con4-43 (C) (Fc fusion)
chain: [human IgG1 Fc not written out]GGGGGAQSISHEECEWDPWTCEHMQVGLE

IC50: 0.16 nM
B23: Con4-31 (C) (Fc fusion)
chain: [human IgG1 Fc not written out]GGGGGAQNRLQEVCEWDPWTCEHMENVLE

IC50: 15 nM
B24: Con4-15 (C) (Fc fusion)
chain: [human IgG1 Fc not written out]GGGGGAQQWSWPPCEWDPWTCQTVWPSLE

IC50: 2.75 nM
B25: Con4-C1 (C) (Fc fusion)
chain: [human IgG1 Fc not written out]GGGGGAQTTIGSMCEWDPWTCAHMQGGLE

IC50: 0.22 nM
B26: Con4-27 (C) (Fc fusion)
chain: [human IgG1 Fc not written out]GGGGGAQTWPQDKCEWDPWTCEHMGSTLE

IC50: 9.7 nM
B27: Con4-11 (C) (Fc fusion)
chain: [human IgG1 Fc not written out]GGGGGAQQGMKMFCEWDPWTCAHIVYRLE

IC50: 0.4 nM
B28: Con4-38 (C) (Fc fusion)
chain: [human IgG1 Fc not written out]GGGGGAQPRLQEECVWDPWTCEHMPLRLE

IC50: 1.54 nM
B29: AC4-Con4 (C) (Fc fusion)
chain: [human IgG1 Fc not written out]GGGGGAQVLGGQGCEWDPWTCRLLQGWLE

IC50: 0.28 nM
B30: Con4-34 (C) (Fc fusion)
chain: [human IgG1 Fc not written out]GGGGGAQVKTQEHCDWDPWTCEHMREWLE

IC50: 0.48 nM
B31: Con4-45 (C) (Fc fusion)
chain: [human IgG1 Fc not written out]GGGGGAQWAQQEECAWDPWTCDHMVGLLE

IC50: 3.75 nM
B32: Con4-C2 (C) (Fc fusion)
chain: [human IgG1 Fc not written out]GGGGGAQTTIGSMCQWDPWTCAHMQGGLE

IC50: 9.88 nM
B33: Con4-23 (C) (Fc fusion)
chain: [human IgG1 Fc not written out]GGGGGAQTSQRVGCEWDPWTCQHLTYTLE

IC50: 0.52 nM
B34: Con4-33 (C) (Fc fusion)
chain: [human IgG1 Fc not written out]GGGGGAQPMNQVECDWDPWTCEHMPRSLE

IC50: 0.52 nM
B35: AC2-Con4 (C) (Fc fusion)
chain: [human IgG1 Fc not written out]GGGGGAQFGWSHGCEWDPWTCEHMGSTLE

IC50: 0.38 nM
B36: Con4-50 (C) (Fc fusion)
chain: [human IgG1 Fc not written out]GGGGGAQHGQNMECEWDPWTCEHMFRYLE

IC50: 0.12 nM
B37: Con4-4 (C) (Fc fusion)
chain: [human IgG1 Fc not written out]GGGGGAQWYEQDACEWDPWTCEHMAEVLE

IC50: 0.26 nM
B38: Con4-48 (C) (Fc fusion)
chain: [human IgG1 Fc not written out]GGGGGAQGHSQEECGWDPWTCEHMGTSLE

IC50: 0.49 nM
B39: Con4-37 (C) (Fc fusion)
chain: [human IgG1 Fc not written out]GGGGGAQLPGQEDCEWDPWTCEHMVRSLE

IC50: 0.26 nM
B40: Con4-41 (C) (Fc fusion)
chain: [human IgG1 Fc not written out]GGGGGAQNVRQEKCEWDPWTCEHMPVRLE

IC50: 282 nM
B41: Con4-3 (C) (Fc fusion)
chain: [human IgG1 Fc not written out]GGGGGAQDKILEECQWDPWTCQFFYGALE

IC50: 0.18 nM
B42: Con4-35 (C) (Fc fusion)
chain: [human IgG1 Fc not written out]GGGGGAQVPRQKDCEWDPWTCEHMYVGLE

IC50: 150 nM
B43: Con4-22 (C) (Fc fusion)
chain: [human IgG1 Fc not written out]GGGGGAQVWRSQVCQWDPWTCNLGGDWLE

IC50: 0.56 nM
B44: L1-C1 (N) (Fc fusion)
chain: MGAQQKFKPLDELEQTLYEQWTLQQRLEGGGGG[human IgG1 Fc not written out]

IC50: 0.08 nM
B45: L1-1 (N) (Fc fusion)
chain: MGAQQNYKPLDELDATLYEHFIFHYTLEGGGGG[human IgG1 Fc not written out]

IC50: 0.03 nM
B46: AC6-L1 (N) (Fc fusion)
chain: B45 chain with Q5T, F21W, F23L, H24Q, Y25H, T26S

IC50: 0.08 nM
B47: L1-4 (N) (Fc fusion)
chain: B44 chain with Q5V, E12A, Q20H, T22M, L23F, R26A

IC50: 0.04 nM
B48: L1-2 (N) (Fc fusion)
chain: B44 chain with Q5L, K6N, K8T, R26S

IC50: 0.16 nM
B49: L1-3 (N) (Fc fusion)
chain: B44 chain with Q5T, K8N, Q25H, R26Q
